# From the RNAGym collection of RNA variant scans (doi:10.1073/pnas.2313332121)
# Variants at the background level are over-represented here.
# B1: TPR 5TU (parent)
# chain: GGAUCUUCUCGAUCUAACAAAAAAGACAAAUCUGCCACAAAGCUUGAGAGCAUCUUCGGAUGCAGAGGCGGCAGCCUUCGGUGGCGCGAUAGCGCCAACGUUCUCAACUAUGACACGCAAAACGCGUGCUCCGUUGAAUGGAGUUUAUCAUG
# Variants of: B1
# Assay: polymerase ribozyme fitness, log enrichment relative to wild type (log ratio); higher = more active; in vitro selection for triplet polymerase activity
# Outline: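 Fitness measures genotype enrichment against wild-type enrichment on a logarithmic scale, with inverse-variance-weighted averaging of replicates. The logarithm is base 2, and genotypes were kept only with ≥10 input reads and ≥1 read per output in Illumina sequencing. The sequenced libraries came from one triplicate in vitro selection round, including frozen incubation at −7 °C, of PCR-built, transcribed mutant libraries of each subunit of a heterodimeric triplet polymerase ribozyme.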
row,Variant,polymerase ribozyme fitness (log ratio)
1,GGAUCUUCUCGAUCUAACAAAAAAGACAAAUCUGCCACAAAGCUUGACAGCAUCUUCGGAUGCAGCGGCGCCAGCCUUCGGUGGCGCGAUAGCGCCAUCGUUCUCAACUAUGACACGCAAAACGCGUGCUCCGUUGAAUGGAGUUUAUCCUG,≤ -4.2
2,GGAUCUUCUCGAUCUAACAAAAAAGACAAAUCUGCCACAAAGCUUGACAGCAUCUUCGGGUGCAGAGGCGGCAGCCUUCGGUGGCGCGAUUGCGCCAACGUUCUCAACUAUGACACGCAAAACGCGAGCUACGUUGAAUGGAGUUUAUCAUG,≤ -4.2
3,GGAUCUUCUCGAUCUAACAAAAAAGACAAAUCUGCCACAAAGCUUGACGGCAUCUUCGGAUGCAGAGGCGGCAGCCUUCGGUUGCGCGAUAGCGCCAACGUUCUCAACUAUGACACGCAAAACGCGUGCUCCGUUGAAUGGAGUUUAUCAUG,≤ -4.2
4,GGAUCUUCUCGAUCUAACAAAAAAGACAAAUCUGCCACAAAGCUUGAAAGCAUCUUCGGAAGCAGAGGCGGCAUCCUUCGGUCGCGCGAUUGCGCCAACGUUCUCAACUAUGACACGCAAAACGCGUGCUCCGUUGAAUGAAGUUUAUCAUG,≤ -4.2
5,GGAUCUUCUCGAUCUAACAAAAAAGACAAAUCUGCCACAAAGCUUGACAGAAUCUUCGGAUGCAGAGGCGGCAGCCUUCGGUAGCGCGAUAGCGCCAACGUUCUCAACUAUGACACGCAAAACGCGUGCUCCGUUGAAUGGAGUUUAUCAUG,≤ -4.2
6,GGAUCUUCUCGAUCUAACAAAAAAGACAAAUCUGCCACAAAGCUUGAAAGCAUCUACGGAUGCAGAGGCGGCAGCCUUCGGUGGUGCGAUAGCGCCAACGUUCUCAACUGUGACACGCAAAACGCGUGCUCCGUUGAAUGUAGUUUAUCAUG,≤ -4.2
7,GGAUCUUCUCGAUCUAACAAAAAAGACAAAUCUGCCACAAAGCUUGAAAGCAUCUUCGGAUGCAGAGGCCGCAGCCUUCGGUGGUGCGGUAGCGCCAACGUUCUCAACUAUGACACGCAAAACGCGUGCUCCGGUGAAUGGAGUUUAUCAUG,≤ -4.2
8,GGAUCUUCUCGAUCUAACAAAAAAGACAAAUCUGCCACAAAGCUUGACAGGAUCUUCGGAUGCAGAGGCGGCAGCCUUCGGUGGCGCGAUAGCGCAAACGUUCUCAACUAUGACACGCAAAACGCGUGCUCCGUUGAAUGGAGUUUAUCAUG,≤ -4.2
9,GGAUCUUCUCGAUCUAACAAAAAAGACAAAUCUGCCACAAAGCUUGACAGCAUCUUCGGAUGCAGAGGCGGCUGCCUUCGGUGGCGCGAUAGCGCCAACGCUCACAACUAUGACGCGCAAAACUCGUGCUCCGUUGAAUGGAGUUUAUCAUG,≤ -4.2
10,GGAUCUUCUCGAUCUAACAAAAAAGACAAAUCUGCCACAAAGCUUGACAGCAUCUUCGGAUGGAGAGGCGGCAGCCUUCGGUGGCGCGAUAACGCGAACGUUCUGAAUUAUGACACGCAAAACGCGUGCUCCGUUGAAUGGAGUUUAUCAUG,≤ -4.2
11,GGAUCUUCUCGAUCUAACAAAAAAGACAAAUCUGCCACAAAGCUUGAAAGCAUCUUCGGAUGCAGAGGCGGCAGCCGUCGGUGGCGCAAUAGCGCCAACGUUCUCGACUAUGACACGCAAAACGCGUGCUCCGUUGAAUGGAGUUUAUCAUG,≤ -4.2
12,GGAUCUUCUCGAUCUAACAAAAAAGACAAAUCUGCCACAAAGCUUGACAGCAUCUUCGGAUGCAGAGGCGGGAGCCUUCGGUGACGCGAAAGCGCCAACGUUCUCAACUAUGACACGCAAAACGCGUGCUCCGUUGAAUGGAGUUUAUCAUA,≤ -4.2
13,GGAUCUUCUCGAUCUAACAAAAAAGACAAAUCUGCCACAAAGCUUGACAGCAUCUUCGGAUGCAGAGGCGGCAGCCUUCGGUGGCGCGAUUGCGCCAACGUUCUCAACUAUGACACGCAAAACGCGUGCUCCGUUGAAUGGACUUUAUCAUG,≤ -4.2
14,GGAUCUUCUCGAUCUAACAAAAAAGACAAAUCUGCCACAAAGCUUGACAGUAUCUUCGGAUGCAGAGGCGGCAGCCUUCGGUGGCGCGAUAGCGCCAACGUUCUCAACUAUGACACGCAAAACGCGUGCUCCGUUGAAUGGAGUUUAUCAGG,≤ -4.2
15,GGAUCUUCUCGAUCUAACAAAAAAGACAAAUCUGCCACAAAGCUUGACAGCAUCUUUGGAUGCAGAGGCGGCAGCCUUCGGUGGCGCGAUAGCGCCAACCUUCUCAACUAUGACACGCAAGGCGCGUGCUCCGUUGAAUGGAGUUUAUCAUG,≤ -4.2
16,GGAUCUUCUCGAUCUAACAAAAAAGACAAAUCUGCCACAAAGCUUGAAAGCAAUUUUGGAUGCAGAGGCGGCAGCCUUCGGUGGUGCGAUAGCGCCAACGUUCUCAACUAUGACACGCAAAACGCGUGCUCCGUUGAAUGGAGUUGAUCAUG,≤ -4.2
17,GGAUCUUCUCGAUCUAACAAAAAAGACAAAUCUGCCACAAAGCUUGAAAGCAUCUUCGGAUGCAGAGGCGGCAGCCUUCGGUGCCGCGAUAGCGCCAACCUUCUCAACUAUGACACGCAAAACGCGUGCUCCGUUGAAUGGAGUUUAUCAUG,≤ -4.2
18,GGAUCUUCUCGAUCUAACAAAAAAGACAAAUCUGCCACAAAGCUUGAAAGCAUCUACGGAUGCAGAGGCGGCAGCCUUCGGUGGCGCGAUAGCGCCAACGUUCUCAACGAUGACACGCAAAACGCGUGCUCCGUUGAAUGGAGUUUAUCAUG,-1.39
19,GGAUCUUCUCGAUCUAACAAAAAAGACAAAUCUGCCACAAAGCUUGACAGCAUUUUCGGCUGCAGAGGCGGCAGCCUUCGGUGGCGCGAUAGCGCCAACGUGCUCAACUAGGACACGCAAAACGCGUGCUCCGUUGAAUGGAGUUUAUCAUG,≤ -4.2

row,Variant,polymerase ribozyme fitness (log ratio)
1,GGAUCUUCUCGAUCUAACAAAAAAGACAAAUCUGCCACAAAGCUUGACAGCAUCUUCGGAUGAAGAGGCGGCAGCCUUCGGUAGCGCGAUAGCGCCAACGUUCUCAACUAUGACACGCAAAACGCGUGCUCCCUUGAAUGGAGUUUAUCAUG,-3.98
2,GGAUCUUCUCGAUCUAACAAAAAAGACAAAUCUGCCACAAAGCUUGAAAGCAUCCUCGGAUGCAGAGGCGGCAGCCUUCGAUGGCGCGAUACCGCCAACGUUCUCAACUAUGAUACGCAAAACGCAUGCUCCGUUGAAUGGAGUUUAUCAUG,≤ -4.2
3,GGAUCUUCUCGAUCUAACAAAAAAGACAAAUCUGCCACAAAGCUUGAAAGCAUCUUCGGAUGCAGAGGCGGCAGCCUUCGGCGGAGCGAUAGCGCCAACGUUCUCAACUAUGACACGCAAAACGCGUGCUCCGUUGAAUGGAGUUUAUCAUG,≤ -4.2
4,GGAUCUUCUCGAUCUAACAAAAAAGACAAAUCUGCCACAAAGCUUGACAGCAUCUUCGGAUGCAGAGGCGGCAGCAUUCGGUGGCGCGAUAGUACCAACGUUCUCAACUAUGACACGCAAAACGCGUGCUCCGUUGACUAGAGUUGAUCAUG,≤ -4.2
5,GGAUCUUCUCGAUCUAACAAAAAAGACAAAUCUGCCACAAAGCUUGACAGCAUCUUCGGCUGCAGAGGCGGCAGCCUUCGGUGUCGCGAUAGCGCCAACGUUCUCAACUAUGACACGCAAAACGUGUGCUCCGUUGAAUGGAGUUUAUCAUG,≤ -4.2
6,GGAUCUUCUCGAUCUAACAAAAAAGACAAAUCUGCCACAAAGCUUGACAGCAUCUUCGGCUGCAGAGGCGGUAGCCUUCGGUGGCGCGAUAGCGCCAACGUUCUCAACUAUGACACGCAAAACGCGUGCUCCGUUGAAUGGAGUUUAUCAUG,≤ -4.2
7,GGAUCUUCUCGAUCUAACAAAAAAGACAAAUCUGCCACAAAGCUUGAAAGCAUCUUCGGAUGCAGAGGCGGCAGCCUUCGGUGGCGCGAUAGCGCCAACGUUCUCAACUAUGACACGCAAAACGCGUGCUCCGUUCAAUGGAGUUUAUCAUG,-2.57
8,GGAUCUUCUCGAUCUAACAAAAAAGACAAAUCUGCCACAAAGCUUGAAAGCAUCUACGGAUGCAGAGGCGGCAGGCUUCGGUGUCGCGAUUGCGCCAACGUUCUCAACUAUGACACGCAAAACGCGUGCUCCGUUGAAUGGAGGUUAUCAUG,≤ -4.2
9,GGAUCUUCUCGAUCUAACAAAAAAGACAAAUCUGCCACAAAGCUUGACAGCAUUUUCGUAUGCAGAGUCGGCAGCCUUCGGUGGCGCGAUAGCGCCAACAUUCUCAACUAUGACACGCAAAACGCGUGCUCCGUUGAAUGGAGUUUUUCAUG,≤ -4.2
10,GGAUCUUCUCGAUCUAACAAAAAAGACAAAUCUGCCACAAAGCUUGAAAGCAUCUUCGGAUGCAGAGGCGGCAGCCUUCGGUGGCGCGAUAGCACCAACGGUCUCAACUAUGACACGCAGAACGCGUGCUCCGUUGAAUGGAGUUUAUCAUG,≤ -4.2
11,GGAUCUUCUCGAUCUAACAAAAAAGACAAAUCUGCCACAAAGCUUGACAGCAUCUUCGGAUGCAGAGGCGGCAGCCUUAGGUGGCGCGAUAGCGCCAACGUUCUCAACUAUGACACGCAAAACGCGUGCUCCGUUGAAUGGUGUUUAUCAUG,≤ -4.2
12,GGAUCUUCUCGAUCUAACAAAAAAGACAAAUCUGCCACAAAGCUUGACAGCAUCUUCGGAUGCAGAGGCGGCAGCCUUCGGUGGCGCGUUAGGGCCAACGUUCUCAACUUUGACACGCAAAACGUGUGCUCCGUUGAAUGGAGUUUAUCAUG,≤ -4.2
13,GGAUCUUCUCGAUCUAACAAAAAAGACAAAUCUGCCACAAAGCUUGACAGCAUCUUCGGAUGCAGAGGCGGCGGCCUUGGGUGGCGCGAUAGCUCCAACGUUCUCAACUAUGACACGCAAAACGCGUGCUCCGUUGAACGGAGUUUCUCAUG,≤ -4.2
14,GGAUCUUCUCGAUCUAACAAAAAAGACAAAUCUGCCACAAAGCUUGAAAGCAUCUACGGAUGCAGAGGCGGCAGCCUUCGGUGGCGCGAUAGCGCCAACGUUCUCAGCUAUGACACGCAAAACGCGUGCUCCGUUGAAUGGAGUUUAUCAUG,≤ -4.2
15,GGAUCUUCUCGAUCUAACAAAAAAGACAAAUCUGCCACAAAGCUUGAAAGCAUCUUCGGAUGCAGAGGCGGCAGCCUUCGGUGGCGCGACAGCGCCAACGUUCUCAACUAUGACACGCAAAACGCGUGCUCCGUAGAAUGGAGAUUAUCAUG,≤ -4.2
16,GGAUCUUCUCGAUCUAACAAAAAAGACAAAUCUGCCACAAAGCUUGACAGCUUCUUCCGAUGCAGAGGCGGCAGCGUUCGGUGGCGCGAUCGAGCCAACGUUCUCAACUAUGACACGCAAAACGCGUGCUCCGUUGAAUGGAGUUUAGCAUG,≤ -4.2
17,GGAUCUUCUCGAUCUAACAAAAAAGACAAAUCUGCCACAAAGCUUGACAGCAUCUUCGGAUGCAGAGGCGGCAGCCUUCGGUGGCGCGAUAGCGCCAACGUUCUCAACUUUGACACGGCAAACGCGUGCUCCGUUGAAUGGAGUUUAUCAUG,≤ -4.2
18,GGAUCUUCUCGAUCUAACAAAAAAGACAAAUCUGCCACAAAGCUUGAAAGCAUCUUCGGAUGCAGAGGCGGCAGCCUUCGGUGGCGCAAUAGCGCAAACGUUCUCAACUAUGACACGCAAAACGCGUGCUCCGUUGAAUGGUGUUUAUCAUG,≤ -4.2
19,GGAUCUUCUCGAUCUAACAAAAAAGACAAAUCUGCCACAAAGCUUGACAGCAUCUUCGGAUGCAGAGGCGGCAGUCCUCGGUGGCGCGAUAGGGCCAACGUUCUCAACUAUGACACGCAAAUCGCGUGCUCCGUUGAAUGGAGUUUAUCCUG,≤ -4.2
